Values joined by “and” are separate entries in the source; they are usually repeats but may differ in a detail not shown here. Identical values can stand only once. The campaign covered roughly 16,000 compounds. About 40 (0.2%) were called active. Not shown: some 1% with an inconclusive outcome. The call rests on the fitted dose curve; in most records, active means well fitted activation curve with a large enough effect; inconclusive means small, poorly fitted or top-dose-only effect, or another doubt; inactive means no such curve, though single readings can be large or run the other way. Some of the results follow.
Target: Rap guanine nucleotide exchange factor 4 (Homo sapiens) (UniProt Q8WZA2)
UniProt Q8WZA2, sequence (Q8WZA2 whole entry, looked up): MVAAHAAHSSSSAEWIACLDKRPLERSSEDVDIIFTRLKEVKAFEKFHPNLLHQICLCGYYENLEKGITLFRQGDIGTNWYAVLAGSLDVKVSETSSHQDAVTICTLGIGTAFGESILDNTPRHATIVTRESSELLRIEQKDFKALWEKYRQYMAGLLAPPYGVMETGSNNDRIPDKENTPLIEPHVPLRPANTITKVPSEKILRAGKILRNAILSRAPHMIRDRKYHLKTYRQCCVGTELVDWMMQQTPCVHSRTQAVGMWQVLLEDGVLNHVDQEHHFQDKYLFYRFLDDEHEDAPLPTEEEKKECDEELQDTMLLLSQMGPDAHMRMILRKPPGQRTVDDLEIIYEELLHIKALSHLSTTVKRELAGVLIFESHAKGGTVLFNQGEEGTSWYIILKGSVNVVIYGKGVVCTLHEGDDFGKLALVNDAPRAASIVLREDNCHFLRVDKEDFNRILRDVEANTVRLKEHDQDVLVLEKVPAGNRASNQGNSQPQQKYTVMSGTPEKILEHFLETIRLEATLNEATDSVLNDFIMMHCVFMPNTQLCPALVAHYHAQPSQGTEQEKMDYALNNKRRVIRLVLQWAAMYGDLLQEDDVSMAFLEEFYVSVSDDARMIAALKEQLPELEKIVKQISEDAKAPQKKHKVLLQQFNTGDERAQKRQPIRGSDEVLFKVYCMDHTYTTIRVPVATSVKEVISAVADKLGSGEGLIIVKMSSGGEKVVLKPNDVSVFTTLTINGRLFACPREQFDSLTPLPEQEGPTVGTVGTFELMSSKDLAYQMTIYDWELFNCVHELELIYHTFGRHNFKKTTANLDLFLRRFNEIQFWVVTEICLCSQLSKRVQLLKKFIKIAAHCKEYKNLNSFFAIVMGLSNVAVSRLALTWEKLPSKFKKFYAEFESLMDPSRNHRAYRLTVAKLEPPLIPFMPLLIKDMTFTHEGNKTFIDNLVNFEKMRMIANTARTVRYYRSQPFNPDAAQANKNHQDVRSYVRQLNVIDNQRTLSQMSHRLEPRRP
Test: Validation qHTS for agonist of cAMP-regulated guanine nucleotide exchange factor 4 (EPAC2);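 further: exchange makes BODIPY-GDP fluorescence drop when released from Rap1B; series mostly up to about 150 µM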
Details: EPAC2 Rap1B BODIPY-GDP exchange, fluorescence; activation: active compounds read high
How it was run: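 Fluorescent exchange assay: 100 nM EPAC2 with 250 nM RAP1B-BODIPY-GDP and 50 uM GDP; compound added, 5 min at room temperature, then read (ex 480/em 540 nm) every 5 min for 30 min. Normalized to 6.5 mM cAMP agonist control.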
On the % scale 0 is the no-effect control and ±100 the full control effect.

activation, inactive:
CN1CCCCCC1C(=O)NCCN1Cc2ccccc2OC(c2ccsc2)C1 (configuration not stated) -6.04%, O=C(Nc1ccc(C(=O)O)c(O)c1)c1ccccc1 -3.43%, CN(C)c1c(Cl)cc(/C=C/c2ccnc3ccccc23)cc1Br -18.9%, CN(C)/N=N/c1nc[nH]c1C(N)=O -18.2% and -16.2%, CC1=CC2C(C)(C)CC(=O)C[C@]2(C)CC1COc1ccc2c(c1)CC(=O)C=C2 (some centres not stated) -12.9%, COc1ccc(CNc2ncnc3ccc(-c4cccc(NS(C)(=O)=O)c4)cc23)c(OC)c1 7.62%, Cc1nc2cnc(N3CCN(C)CC3)nc2n(C[C@H]2CCCO2)c1=O -8.25%, CCCCCC1Nc2cc(C(F)(F)F)c(S(N)(=O)=O)cc2S(=O)(=O)N1 (configuration not stated) 5.78%, CN1CCN(c2ncc3nc(-c4ccccc4)c(=O)n(CCc4ccccc4)c3n2)CC1 -32.1%, CCn1c(-c2ccccc2F)nc2cc(NC(C)=O)cc(C(=O)N3CCCCC3c3nccn3C)c21 (configuration not stated) 2.78%, CC[C@]1(O)C[C@H]2CN(CCC3=c4ccccc4=N[C]3[C@@](C(=O)OC)(c3cc4c(cc3OC)N(C)[C@H]3[C@@](O)(C(N)=O)[C@H](O)[C@]5(CC)C=CCN6CC[C@]43[C@@H]65)C2)C1 -27.6%, CCn1c(-c2cccnc2)nc2cc(NC(=O)COC)cc(C(=O)N3CC[C@@H]4CCCC[C@H]4C3)c21 -10.2%, COc1[nH]c2ccc(F)cc2c1C(=O)OCC1CCN(CCNS(C)(=O)=O)CC1 -11.6%, O=[N+]([O-])c1cccc(S(=O)(=O)NCCNS(=O)(=O)c2cccc([N+](=O)[O-])c2)c1 -7.42%, COc1ccccc1-n1cc(CN2CCOc3ccc(CN4C[C@@H](C)O[C@@H](C)C4)cc3C2)cn1 7.27%, COc1cccc(-c2cnc(-c3ccncc3)nc2C2CCN(C(=O)Cc3csc(C)n3)CC2)c1 -41.6%, CCn1nc(C)c(CN2CCC3(CCC(CNC(=O)c4ccccc4)O3)CC2)c1C (configuration not stated) -7.73%, COC(=O)/C=C/c1ccc2c(c1)S(=O)(=O)N(c1cccc(OC)c1)[C@H]2CC(=O)OC -2.12%, CCOc1ccc2c(c1)C(C)=CC(C)(C)N2 -10.3% and -24.6%, CCOC(=O)[C@H](CCc1ccccc1)N[C@@H](C)C(=O)N1[C@H](C(=O)O)C[C@@H]2CCC[C@@H]21 -0.75%, COCCn1c(=O)c(-c2cccs2)nc2cnc(OCc3ccccc3)nc21 -6.12%, COc1ccc(CNc2ncnc3ccc(-c4ccccc4C#N)cc23)c(OC)c1 -9.78%, NC(=O)c1ncn([C@@H]2O[C@H](CO)[C@@H](O)[C@H]2O)n1 2.3% and -5.32%, COc1ccccc1CN1CCC2(CCNCC2)CC1 3.59%, O=C1CC(C(=O)N2CCOc3ccc(CN4CCC(Oc5cccnc5)CC4)cc3C2)c2ccccc21 (configuration not stated) -19%, CCC(CC)(CC(=O)Nc1cccc(/C=C/c2nc(C3CCC3)cs2)c1)C(=O)O -13.8%, CN(C)c1ccc(C=O)c(Cl)c1 -23.7%, COC(=O)[C@@H](CC(C)C)NS(=O)(=O)N(Cc1ccccc1)[C@@H](CC(C)C)C(=O)OC -22.1%, NC(=O)C1CCCN(Cc2ccc3c(c2)CN(Cc2ccccc2)CCO3)C1 (configuration not stated) 2.94%, COc1ccc(NC(=O)N2CC[C@@]3(CCCN(C(=O)c4c(C)noc4C)C3)C2)cc1 -11.1%, CC(=O)c1ccc(F)c(-c2cc(C)cc3c2OC(CNC(=O)Cn2nc(C)nc2C)C3)c1 (configuration not stated) -10.9%, COCCCNC(=O)c1cnn(-c2ncc3c(n2)-c2ccccc2CCC3)c1C 5.39%, CC(C)COCC(CN(Cc1ccccc1)c1ccccc1)N1CCCC1 (configuration not stated) -4.77% [middle of 4 runs], O=C(Oc1ccccc1)N1CCC[C@@]2(CCN(c3ccccn3)C2)C1 -8.43%, CC1=CC2C(C(C)C)CCC(C)(O)C2CC1 (configuration not stated) -15.2%, CS(=O)(=O)c1ccc([C@@H](O)[C@@H](COC(=O)CN)NC(=O)C(Cl)Cl)cc1 9.1%, COC(=O)[C@H]1[C@H]2C[C@@H]3c4[nH]c5cc(OC)ccc5c4CCN3C[C@H]2C[C@@H](OC(=O)COc2ccc(OC)cc2)[C@@H]1OC 8.61%, c1ccc2c(N3CCNCC3)nc(-c3ccoc3)nc2c1 -4.06%, NC(C(=O)O)c1ccc(P(=O)(O)O)cc1 (configuration not stated) 2.91%, Cc1ccc(CN2CCC(=O)N(Cc3ccccn3)CC2)c(C)c1 -19.1%, Cn1c(=O)c2[nH]c(C3CCCC3)nc2n(C)c1=O -15.1% and -4.01% and -37.7%, COc1ccc(C(=O)N2CCC[C@@]3(CCN(Cc4ccc(C#N)cc4)C3)C2)cc1 2.96%, CCCN1CCC(=O)N([C@H](CSc2ccccc2)CC(C)C)CC1 -38.6%, Cc1cccc(CNc2nc(-c3c(C)noc3C)nc3ccccc23)c1 -5.93%, CC1=C(/C=C/C(C)=C/C=C/C(C)=C/C(=O)Oc2c(C)c(C)c3c(c2C)CC[C@@](C)(CCC[C@H](C)CCC[C@H](C)CCCC(C)C)O3)C(C)(C)CCC1 -16.3%, COc1ccc2c(c1)CCC1C2CC[C@@]2(C)C1CC[C@@H]2NCCCCCCN1C(=O)C=CC1=O (some centres not stated) -19%, CN(C)c1ncc2nc(CCc3ccccc3)c(=O)n(C3CC3)c2n1 -8.01%, CC(C)C[C@@H](CO)N1CCN(Cc2cccnc2)CCC1=O -8.52%, Cc1cnc(-n2ncc(C(=O)NCCN3CCOCC3)c2-c2cccs2)nc1-c1ccc(F)cc1 -0.714%, COC1C[C@@H](O[C@@H]2C(C)C(=O)OC(C)C(C)C(O)C(C)C(=O)[C@@]3(CO3)CC(C)C(OC3OC(C)CC(N(C)C)C3O)C2C)OC(C)[C@@H]1O (some centres not stated) -4.88%, Cn1c(=O)c(-c2cccs2)nc2cnc(Oc3ccccc3)nc21 -2.57%, O=C1CCC(c2ccccc2)(C2CCN(Cc3ccccc3)CC2)C(=O)N1 (configuration not stated) -20.1% and -3.92%, CNS(=O)(=O)Cc1ccc2[nH]cc(CCN(C)C)c2c1 -28%, O=c1c(O)c(-c2ccc(O)c(O)c2)oc2cc(O)ccc12 -0.0805% and -11.3%, CN(Cc1cnc2ccccn12)C1CCN(c2cccc(NC(=O)c3cccnc3)c2)CC1 6.25%, Cc1nc2cnc(N3CCN(C)CC3)nc2n(C)c1=O -4.01%, Cc1nc(C)n(CC(=O)NCC2Cc3cc(-c4ccsc4)cc(Cl)c3O2)n1 (configuration not stated) -10.7%, COc1ccc(C2COc3c(ccc(O)c3OC)C2)c(OC)c1O (configuration not stated) -11.2%, COc1cc(=O)n2c(c1C(=O)N(C)Cc1nccs1)CCN(Cc1cccc(F)c1F)CC2 -3.03%, COc1ncc2nc(-c3cn(C)c4ccccc34)c(=O)n(CCC#N)c2n1 -8.41%, COc1ccccc1CC(=N)N1C[C@@H]2C(=O)CCC(c3ccccc3)(c3ccccc3)[C@@H]2C1 -21.5%, CC(C)(N=NC(C)(C)C(=N)N)C(=N)N -6.54%, COc1ccc2[nH]cc(CCNc3ccnc(-c4cccc(NS(C)(=O)=O)c4)n3)c2c1 -10.5%, COc1cc(C(=O)NS(=O)(=O)c2ccccc2C)ccc1Cc1cn(C)c2ccc(NC(=O)OC3CCCC3)cc12 -32.2%, OC[C@H]1O[C@@H](O[C@H]2[C@H](O)[C@@H](O)[C@H](O)O[C@@H]2CO)[C@H](O)[C@@H](O)[C@@H]1O -15.4%, COc1cc(OC)c(OC)cc1CN1CCC(n2cc(C(=O)N3CCCCC3)nn2)CC1 -15.5%, COc1ccc2[nH]cc(CCNc3cc(-c4ccoc4)ncn3)c2c1 -5.66%, CCN[C@@H]1C[C@H](N)[C@@H](OC2OC(CN)=CCC2N)[C@H](O)[C@H]1O[C@H]1OC[C@](C)(O)[C@H](NC)[C@H]1O (some centres not stated) 7.14%, Cc1cc(C2CCCCC2)n(O)c(=O)c1 -11.9% and -8.75%, CCS(=O)(=O)Nc1cc(C(=O)N2C[C@@H](C)O[C@@H](C)C2)c2c(c1)nc(-c1ccccc1)n2C 2.73%, CC(=O)N1CCC2(CC1)CCN(C(=O)Nc1cccc(C#N)c1)CC2 -4.43%, C[C@@]12CC[C@@H]3c4ccc(O)cc4C[C@H](CCCCCCCCCS(=O)CCCC(F)(F)C(F)(F)F)[C@H]3[C@@H]1CC[C@@H]2O (some centres not stated) -22.7%, O=C(c1ccnc(-n2cnnn2)c1)N1CCOc2ccc(C(O)CCc3ccccc3)cc2C1 (configuration not stated) -4.82%, CCC1(C2CCN(C(=O)c3cccc(F)c3F)CC2)NC(=O)N(CCc2scnc2C)C1=O (configuration not stated) 6.74%, O=S(=O)(c1ccccc1)N1CCC2(CC1)CN(c1ccccc1)C2 -3.34%, O=c1c(-c2ccc(F)cc2)nc2cnc(N3CCOCC3)nc2n1CCc1ccccc1 -1.56%, Oc1ccc(/C=C/c2ccc(/C=C/c3ccc(O)cc3)c(Br)c2)cc1 -2.2%

Reference: PubChem BioAssay AID1645887 (National Center for Advancing Translational Sciences (NCATS), 2021)
